# This is one part of the list.
# B1: WGA (Triticum vulgare) (protein)
# chain: QRCGEQGSNMECPNNLCCSQYGYCGMGGDYCGKGCQNGACWTSKRCGSQAGGATCPNNHCCSQYGHCGFGAEYCGAGCQGGPCRADIKCGSQSGGKLCPNNLCCSQWGFCGLGSEFCGGGCQSGACSTDKPCGKDAGGRVCTNNYCCSKWGSCGIGPGYCGAGCQSGGCDAVFAGAITANSTLLAE
# What was measured:
# Experiment in all cases: glycan array binding signal (z-score within array); higher = stronger binding
# Details in all cases: glycan notation: IUPAC condensed, linker removed
# [1] = target: Fuc(a1-2)Gal
# Procedure, shortened: (§1)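 The binding signal is a Z-score computed within each array and averaged over linkers. Arrays of the same protein sequence at different concentrations or buffers were also averaged together. Data originate from 3228 arrays in the Consortium for Functional Glycomics database, kept only where the protein sequence was available.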
# [2] = target: Fuc(a1-2)Gal(b1-3)GalNAc
# Procedure, shortened: as §1
# [3] = target: Fuc(a1-2)Gal(b1-3)GalNAc(a1-3)[Fuc(a1-2)]Gal(b1-4)Glc
# Procedure, shortened: as §1
# [4] = target: Fuc(a1-2)Gal(b1-3)GalNAc(a1-3)[Fuc(a1-2)]Gal(b1-4)GlcNAc
# Procedure, shortened: as §1
# [5] = target: Fuc(a1-2)Gal(b1-3)GalNAc(b1-3)Gal
# Procedure, shortened: as §1
# [6] = target: Fuc(a1-2)Gal(b1-3)GalNAc(b1-3)Gal(a1-4)Gal(b1-4)Glc
# Procedure, shortened: as §1
# [7] = target: Fuc(a1-2)Gal(b1-3)GalNAc(b1-4)[Neu5Ac(a2-3)]Gal(b1-4)Glc
# Procedure, shortened: as §1
# [8] = target: Fuc(a1-2)Gal(b1-3)GlcNAc
# Procedure, shortened: as §1
# [9] = target: Fuc(a1-2)Gal(b1-3)GlcNAc(b1-2)Man(a1-3)[Fuc(a1-2)Gal(b1-3)GlcNAc(b1-2)Man(a1-6)]Man(b1-4)GlcNAc(b1-4)GlcNAc
# Procedure, shortened: as §1
# [10] = target: Fuc(a1-2)Gal(b1-3)GlcNAc(b1-2)Man(a1-3)[Fuc(a1-2)Gal(b1-3)GlcNAc(b1-2)Man(a1-6)]Man(b1-4)GlcNAc(b1-4)[Fuc(a1-6)]GlcNAc
# Procedure, shortened: as §1
# [11] = target: Fuc(a1-2)Gal(b1-3)GlcNAc(b1-3)Gal(b1-4)Glc
# Procedure, shortened: as §1
# [12] = target: Fuc(a1-2)Gal(b1-3)GlcNAc(b1-3)GalNAc
# Procedure, shortened: as §1
# [13] = target: Fuc(a1-2)Gal(b1-3)GlcNAc(b1-3)[Fuc(a1-2)Gal(b1-3)GlcNAc(b1-6)]GalNAc
# Procedure, shortened: as §1
# [14] = target: Fuc(a1-2)Gal(b1-3)GlcNAc(b1-3)[Gal(b1-4)GlcNAc(b1-6)]Gal(b1-4)Glc
# Procedure, shortened: as §1
# [15] = target: Fuc(a1-2)Gal(b1-3)GlcNAc(b1-3)[Neu5Ac(a2-6)Gal(b1-4)GlcNAc(b1-6)]Gal(b1-4)Glc
# Procedure, shortened: as §1
# [16] = target: Fuc(a1-2)Gal(b1-3)GlcNAc6S
# Procedure, shortened: as §1
# [17] = target: Fuc(a1-2)Gal(b1-3)[Fuc(a1-4)]GlcNAc
# Procedure, shortened: as §1
# [18] = target: Fuc(a1-2)Gal(b1-3)[Fuc(a1-4)]GlcNAc(b1-2)Man(a1-3)[Fuc(a1-2)Gal(b1-3)[Fuc(a1-4)]GlcNAc(b1-2)Man(a1-3)]Man(b1-4)GlcNAc(b1-4)GlcNAc
# Procedure, shortened: as §1
# [19] = target: Fuc(a1-2)Gal(b1-3)[Fuc(a1-4)]GlcNAc(b1-2)Man(a1-3)[Fuc(a1-2)Gal(b1-3)[Fuc(a1-4)]GlcNAc(b1-2)Man(a1-6)]Man(b1-4)GlcNAc(b1-4)[Fuc(a1-6)]GlcNAc(b1-4)[Fuc(a1-6)]GlcNAc
# Procedure, shortened: as §1
# [20] = target: Fuc(a1-2)Gal(b1-3)[Fuc(a1-4)]GlcNAc(b1-3)[Fuc(a1-3)[Gal(b1-4)]GlcNAc(b1-6)]Gal(b1-4)Glc
# Procedure, shortened: as §1
# [21] = target: Fuc(a1-2)Gal(b1-3)[Fuc(a1-4)]GlcNAc(b1-3)[Gal(b1-4)GlcNAc(b1-6)]Gal(b1-4)Glc
# Procedure, shortened: as §1
# [22] = target: Fuc(a1-2)Gal(b1-4)Fuc(a1-3)]GlcNAc(b1-2)Man(a1-3)[Fuc(a1-2)Gal(b1-4)[Fuc(a1-3)]GlcNAc(b1-2)Man(a1-6)]Man(b1-4)GlcNAc(b1-4)GlcNAc
# Procedure, shortened: as §1
# [23] = target: Fuc(a1-2)Gal(b1-4)Glc
# Procedure, shortened: as §1
# [24] = target: Fuc(a1-2)Gal(b1-4)Glc6S
# Procedure, shortened: as §1
# [25] = target: Fuc(a1-2)Gal(b1-4)GlcNAc
# Procedure, shortened: as §1
# [26] = target: Fuc(a1-2)Gal(b1-4)GlcNAc(b1-2)Man
# Procedure, shortened: as §1
# [27] = target: Fuc(a1-2)Gal(b1-4)GlcNAc(b1-2)Man(a1-3)[Fuc(a1-2)Gal(b1-4)GlcNAc(b1-2)Man(a1-6)]Man(b1-4)GlcNAc(b1-4)GlcNAc
# Procedure, shortened: as §1
# [28] = target: Fuc(a1-2)Gal(b1-4)GlcNAc(b1-2)Man(a1-3)[Fuc(a1-2)Gal(b1-4)GlcNAc(b1-2)Man(a1-6)]Man(b1-4)GlcNAc(b1-4)[Fuc(a1-6)]GlcNAc
# Procedure, shortened: as §1
# [29] = target: Fuc(a1-2)Gal(b1-4)GlcNAc(b1-2)[Fuc(a1-2)Gal(b1-4)GlcNAc(b1-4)]Man(a1-3)[Fuc(a1-2)Gal(b1-4)GlcNAc(b1-2)Man(a1-6)]Man(b1-4)GlcNAc(b1-4)GlcNAc
# Procedure, shortened: as §1
# [30] = target: Fuc(a1-2)Gal(b1-4)GlcNAc(b1-3)Gal(b1-4)GlcNAc
# Procedure, shortened: as §1
# [31] = target: Fuc(a1-2)Gal(b1-4)GlcNAc(b1-3)Gal(b1-4)GlcNAc(b1-2)Man(a1-3)[Fuc(a1-2)Gal(b1-4)GlcNAc(b1-3)Gal(b1-4)GlcNAc(b1-2)Man(a1-6)]Man(b1-4)GlcNAc(b1-4)GlcNAc
# Procedure, shortened: as §1
# [32] = target: Fuc(a1-2)Gal(b1-4)GlcNAc(b1-3)Gal(b1-4)GlcNAc(b1-3)Gal(b1-4)GlcNAc
# Procedure, shortened: as §1
# [33] = target: Fuc(a1-2)Gal(b1-4)GlcNAc(b1-3)GalNAc
# Procedure, shortened: as §1
# [34] = target: Fuc(a1-2)Gal(b1-4)GlcNAc(b1-3)[Fuc(a1-2)Gal(b1-4)GlcNAc(b1-6)]GalNAc
# Procedure, shortened: as §1
# [35] = target: Fuc(a1-2)Gal(b1-4)GlcNAc(b1-3)[Fuc(a1-3)[Gal(b1-4)]GlcNAc(b1-6)]Gal(b1-4)Glc
# Procedure, shortened: as §1
# [36] = target: Fuc(a1-2)Gal(b1-4)GlcNAc(b1-6)GalNAc
# Procedure, shortened: as §1
# [37] = target: Fuc(a1-2)Gal(b1-4)GlcNAc6S
# Procedure, shortened: as §1
# [38] = target: Fuc(a1-2)Gal(b1-4)[Fuc(a1-3)]GlcNAc
# Procedure, shortened: as §1
# [39] = target: Fuc(a1-2)Gal(b1-4)[Fuc(a1-3)]GlcNAc(b1-2)Man(a1-3)[Fuc(a1-2)Gal(b1-4)[Fuc(a1-3)]GlcNAc(b1-2)Man(a1-6)]Man(b1-4)GlcNAc(b1-4)[Fuc(a1-6)]GlcNAc
# Procedure, shortened: as §1
# [40] = target: Fuc(a1-2)Gal(b1-4)[Fuc(a1-3)]GlcNAc(b1-2)[Fuc(a1-2)Gal(b1-4)[Fuc(a1-3)]GlcNAc(b1-4)]Man(a1-3)[Fuc(a1-2)Gal(b1-4)[Fuc(a1-3)]GlcNAc(b1-2)Man(a1-6)]Man(b1-4)GlcNAc(b1-4)GlcNAc
# Procedure, shortened: as §1
# [41] = target: Fuc(a1-2)Gal(b1-4)[Fuc(a1-3)]GlcNAc(b1-3)Gal(b1-4)[Fuc(a1-3)]GlcNAc
# Procedure, shortened: as §1
# [42] = target: Fuc(a1-2)Gal(b1-4)[Fuc(a1-3)]GlcNAc(b1-3)Gal(b1-4)[Fuc(a1-3)]GlcNAc(b1-3)Gal(b1-4)[Fuc(a1-3)]GlcNAc
# Procedure, shortened: as §1
# [43] = target: Fuc(a1-2)Gal(b1-4)[Fuc(a1-3)]GlcNAc(b1-3)GalNAc
# Procedure, shortened: as §1
# [44] = target: Fuc(a1-2)Gal(b1-4)[Fuc(a1-3)]GlcNAc(b1-3)[Neu5Ac(a2-6)Gal(b1-4)GlcNAc(b1-6)]Gal(b1-4)Glc
# Procedure, shortened: as §1
# [45] = target: Fuc(a1-2)Gal3S(b1-4)GlcNAc
# Procedure, shortened: as §1
binder,measurement,setting,value
B1,glycan array binding signal (z-score),[1],-0.343
same,glycan array binding signal (z-score),[2],-0.357
same,glycan array binding signal (z-score),[3],-0.359
same,glycan array binding signal (z-score),[4],-0.05
same,glycan array binding signal (z-score),[5],-0.336
same,glycan array binding signal (z-score),[6],-0.36
same,glycan array binding signal (z-score),[7],-0.367
same,glycan array binding signal (z-score),[8],-0.361
same,glycan array binding signal (z-score),[9],-0.02
same,glycan array binding signal (z-score),[10],-0.297
same,glycan array binding signal (z-score),[11],-0.384
same,glycan array binding signal (z-score),[12],-0.341
same,glycan array binding signal (z-score),[13],-0.344
same,glycan array binding signal (z-score),[14],-0.25
same,glycan array binding signal (z-score),[15],-0.342
same,glycan array binding signal (z-score),[16],-0.347
same,glycan array binding signal (z-score),[17],-0.358
same,glycan array binding signal (z-score),[18],-0.244
same,glycan array binding signal (z-score),[19],-0.286
same,glycan array binding signal (z-score),[20],-0.348
same,glycan array binding signal (z-score),[21],-0.249
same,glycan array binding signal (z-score),[22],-0.173
same,glycan array binding signal (z-score),[23],-0.352
same,glycan array binding signal (z-score),[24],-0.356
same,glycan array binding signal (z-score),[25],-0.147
same,glycan array binding signal (z-score),[26],-0.357
same,glycan array binding signal (z-score),[27],-0.197
same,glycan array binding signal (z-score),[28],-0.263
same,glycan array binding signal (z-score),[29],-0.198
same,glycan array binding signal (z-score),[30],0.147
same,glycan array binding signal (z-score),[31],-0.019
same,glycan array binding signal (z-score),[32],0.077
same,glycan array binding signal (z-score),[33],-0.334
same,glycan array binding signal (z-score),[34],-0.342
same,glycan array binding signal (z-score),[35],-0.339
same,glycan array binding signal (z-score),[36],-0.277
same,glycan array binding signal (z-score),[37],-0.215
same,glycan array binding signal (z-score),[38],-0.359
same,glycan array binding signal (z-score),[39],-0.297
same,glycan array binding signal (z-score),[40],-0.238
same,glycan array binding signal (z-score),[41],-0.365
same,glycan array binding signal (z-score),[42],-0.336
same,glycan array binding signal (z-score),[43],-0.239
same,glycan array binding signal (z-score),[44],-0.371
same,glycan array binding signal (z-score),[45],-0.346
